From patent US6861390B2, “Derivatives of UK-2A” (priority 2001, dated 2005)

Test system: Plasmopara viticola (PLASVI)
Test: whole plant or invertebrate
Details: 24 h, read-out: T4 PLASVI in vivo 1 Day Protectant, control of fungal infection
Text: A blank space indicates not tested.

Row | SMILES | pest or weed control at 100 ppm [%]
1 | COCOc1c(OC)ccnc1C(=O)N[C@H]1COC(=O)[C@H](Cc2ccccc2)[C@@H](OC(=O)C(C)C)[C@H](C)OC1=O [Compound 4] | < 25
2 | CCOCOc1c(OC)ccnc1C(=O)N[C@H]1COC(=O)[C@H](Cc2ccccc2)[C@@H](OC(=O)C(C)C)[C@H](C)OC1=O [Compound 5] | < 25
3 | CCCOCOc1c(OC)ccnc1C(=O)N[C@H]1COC(=O)[C@H](Cc2ccccc2)[C@@H](OC(=O)C(C)C)[C@H](C)OC1=O [Compound 6] | < 25
4 | COc1ccnc(C(=O)N[C@H]2COC(=O)[C@H](Cc3ccccc3)[C@@H](OC(=O)C(C)C)[C@H](C)OC2=O)c1OCOC(C)C [Compound 7] | 25 to 74
5 | COc1ccnc(C(=O)N[C@H]2COC(=O)[C@H](Cc3ccccc3)[C@@H](OC(=O)C(C)C)[C@H](C)OC2=O)c1OCOC(C)(C)C [Compound 8] | < 25
6 | COc1ccnc(C(=O)N[C@H]2COC(=O)[C@H](Cc3ccccc3)[C@@H](OC(=O)C(C)C)[C@H](C)OC2=O)c1OCOCC(C)C [Compound 9] | < 25
7 | COc1ccnc(C(=O)N[C@H]2COC(=O)[C@H](Cc3ccccc3)[C@@H](OC(=O)C(C)C)[C@H](C)OC2=O)c1OCOCc1ccccc1 [Compound 10] | 25 to 74
8 | COCCOCOc1c(OC)ccnc1C(=O)N[C@H]1COC(=O)[C@H](Cc2ccccc2)[C@@H](OC(=O)C(C)C)[C@H](C)OC1=O [Compound 11] | < 25
9 | COCC(C)OCOc1c(OC)ccnc1C(=O)N[C@H]1COC(=O)[C@H](Cc2ccccc2)[C@@H](OC(=O)C(C)C)[C@H](C)OC1=O (some centres unmarked) [Compound 12] | 75 to 100
10 | COc1ccnc(C(=O)N[C@H]2COC(=O)[C@H](Cc3ccccc3)[C@@H](OC(=O)C(C)C)[C@H](C)OC2=O)c1OCO[Si](C)(C)C [Compound 13] | 25 to 74
11 | COc1ccnc(C(=O)N[C@H]2COC(=O)[C@H](Cc3ccccc3)[C@@H](OC(=O)C(C)C)[C@H](C)OC2=O)c1OCOCCCl [Compound 14] | < 25
12 | COc1ccnc(C(=O)N[C@H]2COC(=O)[C@H](Cc3ccccc3)[C@@H](OC(=O)C(C)C)[C@H](C)OC2=O)c1OCOCCC#N [Compound 15] | < 25
13 | COc1ccnc(C(=O)N[C@H]2COC(=O)[C@H](Cc3ccccc3)[C@@H](OC(=O)C(C)C)[C@H](C)OC2=O)c1OC(C)OC (some centres unmarked) [Compound 16] | < 25
14 | COc1ccnc(C(=O)N[C@H]2COC(=O)[C@H](Cc3ccccc3)[C@@H](OC(=O)C(C)C)[C@H](C)OC2=O)c1OCOCCOC(C)=O [Compound 17] | 25 to 74
15 | COc1ccnc(C(=O)N[C@H]2COC(=O)[C@H](Cc3ccccc3)[C@@H](OC(=O)C(C)C)[C@H](C)OC2=O)c1OCSC [Compound 18] | 25 to 74
16 | COc1ccnc(C(=O)N[C@H]2COC(=O)[C@H](Cc3ccccc3)[C@@H](OC(=O)C(C)C)[C@H](C)OC2=O)c1OCSc1ccccc1 [Compound 19] | < 25
17 | COc1ccnc(C(=O)N[C@H]2COC(=O)[C@H](Cc3ccccc3)[C@@H](OC(=O)C(C)C)[C@H](C)OC2=O)c1OCOC(C)=O [Compound 20] | < 25
18 | CCC(=O)OCOc1c(OC)ccnc1C(=O)N[C@H]1COC(=O)[C@H](Cc2ccccc2)[C@@H](OC(=O)C(C)C)[C@H](C)OC1=O [Compound 21] | 25 to 74
19 | CCCC(=O)OCOc1c(OC)ccnc1C(=O)N[C@H]1COC(=O)[C@H](Cc2ccccc2)[C@@H](OC(=O)C(C)C)[C@H](C)OC1=O [Compound 22] | < 25
20 | COc1ccnc(C(=O)N[C@H]2COC(=O)[C@H](Cc3ccccc3)[C@@H](OC(=O)C(C)C)[C@H](C)OC2=O)c1OCOC(=O)C(C)C [Compound 23] | 75 to 100
21 | COc1ccnc(C(=O)N[C@H]2COC(=O)[C@H](Cc3ccccc3)[C@@H](OC(=O)C(C)C)[C@H](C)OC2=O)c1OCOC(=O)C(C)(C)C [Compound 24] | < 25
22 | COc1ccnc(C(=O)N[C@H]2COC(=O)[C@H](Cc3ccccc3)[C@@H](OC(=O)C(C)C)[C@H](C)OC2=O)c1OC(C)OC(C)=O (some centres unmarked) [Compound 25] | 25 to 74
23 | COc1ccnc(C(=O)N[C@H]2COC(=O)[C@H](Cc3ccccc3)[C@@H](OC(=O)C(C)C)[C@H](C)OC2=O)c1OCOC(=O)C1CC1 [Compound 26] | < 25
24 | COCCC(=O)OCOc1c(OC)ccnc1C(=O)N[C@H]1COC(=O)[C@H](Cc2ccccc2)[C@@H](OC(=O)C(C)C)[C@H](C)OC1=O [Compound 27] | 25 to 74
25 | CCOCCC(=O)OCOc1c(OC)ccnc1C(=O)N[C@H]1COC(=O)[C@H](Cc2ccccc2)[C@@H](OC(=O)C(C)C)[C@H](C)OC1=O [Compound 28] | 25 to 74
26 | COc1ccnc(C(=O)N[C@H]2COC(=O)[C@H](Cc3ccccc3)[C@@H](OC(=O)C(C)C)[C@H](C)OC2=O)c1OCOC(=O)c1ccccc1 [Compound 29] | 25 to 74
27 | COCC(=O)OCOc1c(OC)ccnc1C(=O)N[C@H]1COC(=O)[C@H](Cc2ccccc2)[C@@H](OC(=O)C(C)C)[C@H](C)OC1=O [Compound 30] | 25 to 74

Row | SMILES | pest or weed control at 100 ppm [%]
28 | CCOCC(=O)OCOc1c(OC)ccnc1C(=O)N[C@H]1COC(=O)[C@H](Cc2ccccc2)[C@@H](OC(=O)C(C)C)[C@H](C)OC1=O [Compound 31] | 75 to 100
29 | COC(=O)CCC(=O)OCOc1c(OC)ccnc1C(=O)N[C@H]1COC(=O)[C@H](Cc2ccccc2)[C@@H](OC(=O)C(C)C)[C@H](C)OC1=O [Compound 32] | 75 to 100
30 | COc1ccnc(C(=O)N[C@H]2COC(=O)[C@H](Cc3ccccc3)[C@@H](OC(=O)C(C)C)[C@H](C)OC2=O)c1OCOC(=O)C1CCCC1 [Compound 33] | 25 to 74
31 | COc1ccnc(C(=O)N[C@H]2COC(=O)[C@H](Cc3ccccc3)[C@@H](OC(=O)C(C)C)[C@H](C)OC2=O)c1OCOC(=O)C1CCCO1 (some centres unmarked) [Compound 34] | < 25
32 | CCCOCC(=O)OCOc1c(OC)ccnc1C(=O)N[C@H]1COC(=O)[C@H](Cc2ccccc2)[C@@H](OC(=O)C(C)C)[C@H](C)OC1=O [Compound 35] | 25 to 74
33 | COc1ccnc(C(=O)N[C@H]2COC(=O)[C@H](Cc3ccccc3)[C@@H](OC(=O)C(C)C)[C@H](C)OC2=O)c1OCOC(=O)COC(C)C [Compound 36] | < 25
34 | CCCCOCC(=O)OCOc1c(OC)ccnc1C(=O)N[C@H]1COC(=O)[C@H](Cc2ccccc2)[C@@H](OC(=O)C(C)C)[C@H](C)OC1=O [Compound 37] | < 25
35 | COc1ccnc(C(=O)N[C@H]2COC(=O)[C@H](Cc3ccccc3)[C@@H](OC(=O)C(C)C)[C@H](C)OC2=O)c1OCOC(=O)COCC(C)C [Compound 38] | < 25
36 | CCC(C)OCC(=O)OCOc1c(OC)ccnc1C(=O)N[C@H]1COC(=O)[C@H](Cc2ccccc2)[C@@H](OC(=O)C(C)C)[C@H](C)OC1=O (some centres unmarked) [Compound 39] | < 25
37 | COCCOCC(=O)OCOc1c(OC)ccnc1C(=O)N[C@H]1COC(=O)[C@H](Cc2ccccc2)[C@@H](OC(=O)C(C)C)[C@H](C)OC1=O [Compound 40] | 25 to 74
38 | COc1ccnc(C(=O)N[C@H]2COC(=O)[C@H](Cc3ccccc3)[C@@H](OC(=O)C(C)C)[C@H](C)OC2=O)c1OCOC(=O)COC1CCCC1 [Compound 41] | 25 to 74
39 | COc1ccnc(C(=O)N[C@H]2COC(=O)[C@H](Cc3ccccc3)[C@@H](OC(=O)C(C)C)[C@H](C)OC2=O)c1OCOC(=O)COc1ccccc1 [Compound 42] | < 25
40 | COc1ccnc(C(=O)N[C@H]2COC(=O)[C@H](Cc3ccccc3)[C@@H](OC(=O)C(C)C)[C@H](C)OC2=O)c1OC1OC(=O)c2ccccc21 (some centres unmarked) [Compound 43] | 25 to 74
41 | COC(=O)OCOc1c(OC)ccnc1C(=O)N[C@H]1COC(=O)[C@H](Cc2ccccc2)[C@@H](OC(=O)C(C)C)[C@H](C)OC1=O [Compound 44] | 25 to 74
42 | CCOC(=O)OCOc1c(OC)ccnc1C(=O)N[C@H]1COC(=O)[C@H](Cc2ccccc2)[C@@H](OC(=O)C(C)C)[C@H](C)OC1=O [Compound 45] | 75 to 100
43 | CCCOC(=O)OCOc1c(OC)ccnc1C(=O)N[C@H]1COC(=O)[C@H](Cc2ccccc2)[C@@H](OC(=O)C(C)C)[C@H](C)OC1=O [Compound 46] | 25 to 74
44 | COc1ccnc(C(=O)N[C@H]2COC(=O)[C@H](Cc3ccccc3)[C@@H](OC(=O)C(C)C)[C@H](C)OC2=O)c1OCOC(=O)OC(C)C [Compound 47] | 25 to 74
45 | COCCOC(=O)OCOc1c(OC)ccnc1C(=O)N[C@H]1COC(=O)[C@H](Cc2ccccc2)[C@@H](OC(=O)C(C)C)[C@H](C)OC1=O [Compound 48] | < 25
46 | COc1ccnc(C(=O)N[C@H]2COC(=O)[C@H](Cc3ccccc3)[C@@H](OCC(C)C)[C@H](C)OC2=O)c1OCOC(C)=O [Compound 49] | < 25
47 | COc1ccnc(C(=O)N[C@H]2COC(=O)[C@H](Cc3ccccc3)[C@@H](OC3CCCC3)[C@H](C)OC2=O)c1OCOC(C)=O [Compound 50] | 25 to 74
48 | CCCO[C@H]1[C@H](C)OC(=O)[C@@H](NC(=O)c2nccc(OC)c2OCOC(C)=O)COC(=O)[C@@H]1Cc1ccccc1 [Compound 51] | 25 to 74
49 | C=CCO[C@H]1[C@H](C)OC(=O)[C@@H](NC(=O)c2nccc(OC)c2OCOC(C)=O)COC(=O)[C@@H]1Cc1ccccc1 [Compound 52] | 25 to 74
50 | C=C(C)CO[C@H]1[C@H](C)OC(=O)[C@@H](NC(=O)c2nccc(OC)c2OCOC(C)=O)COC(=O)[C@@H]1Cc1ccccc1 [Compound 53] | 25 to 74
51 | COCCC(=O)OCOc1c(OC)ccnc1C(=O)N[C@H]1COC(=O)[C@H](Cc2ccccc2)[C@@H](OCC(C)C)[C@H](C)OC1=O [Compound 54] | 75 to 100
52 | CCCO[C@H]1[C@H](C)OC(=O)[C@@H](NC(=O)c2nccc(OC)c2OCOC(=O)CCOC)COC(=O)[C@@H]1Cc1ccccc1 [Compound 55] | 25 to 74
53 | COc1ccnc(C(=O)N[C@H]2COC(=O)[C@H](Cc3ccccc3)[C@@H](OCC(C)C)[C@H](C)OC2=O)c1OCOC(=O)C1CC1 [Compound 56] | 25 to 74
